Experimental findings from ChEMBL document CHEMBL5606460, “ASAP - DENV-2 NS2B-NS3 protease fluorescence single point” (2024) are described below.

The target in this test is Genome polyprotein (dengue virus type 2) (UniProt P29990).
The mark [1] stands for this setting: Thailand/16681/1984, Concentration 25.0 uM, Number of replicates 1.0.

Structures are written as SMILES. The campaign covered roughly 2,000 compounds. About 110 (5.5%) showed an effect of 50% or more. The list shows a part of the results.

Regarding `CCn1ccnc(N(C)[C@@H](CO)Cc2c[nH]c3ccccc23)c1=O`, the inhibition (as a rule, the drop in the measured response relative to a control, in per cent) stood at 3.34% (Thailand/16681/1984, Concentration 49.5 uM, Number of replicates 2.0, Standard deviation 1.9142623177196867 %); 10.7% (Thailand/16681/1984, Concentration 99.01 uM, Number of replicates 2.0, Standard deviation 1.7046808757656864 %); 23.8% (Thailand/16681/1984, Concentration 198.0 uM, Number of replicates 2.0, Standard deviation 1.1978606391499407 %).
As to `COc1cc(Cc2ccnc(F)c2)nc(N2CCNCC2)n1`, the inhibition reads like this: (Thailand/16681/1984, Concentration 49.5 uM, Number of replicates 2.0, Standard deviation 1.25288427711158 %) 0.381%; (Thailand/16681/1984, Concentration 99.01 uM, Number of replicates 2.0, Standard deviation 0.507793618082105 %) 1.26%; (Thailand/16681/1984, Concentration 198.0 uM, Number of replicates 2.0, Standard deviation 1.9827356050970315 %) 2.2%.
Consider `Cc1cc(CO)c2cccc(NC(=O)COc3cccc(CN)c3)c2n1`, for which the inhibition came out at 9.18% (Thailand/16681/1984, Concentration 49.95 uM, Number of replicates 2.0, Standard deviation 1.546456211659181 %) and 7.18% (Thailand/16681/1984, Concentration 99.9 uM, Number of replicates 2.0, Standard deviation 0.8863913825569767 %).
On to `NCc1cccc(NC(=O)C2CN(C(=O)OCc3ccccc3)C2)c1`, for which the inhibition (Thailand/16681/1984, Concentration 49.5 uM, Number of replicates 2.0, Standard deviation 1.8861323941320305 %) was -1.49%; the inhibition (Thailand/16681/1984, Concentration 99.01 uM, Number of replicates 2.0, Standard deviation 1.5682827158038206 %) is -1.94%; the inhibition (Thailand/16681/1984, Concentration 198.0 uM, Number of replicates 2.0, Standard deviation 0.22643655672938587 %) was -1.86%.
For `CC(C)(C)c1csc(NC(=O)C2CCN(c3ccc(C=O)cc3)CC2)n1`, the inhibition under setting [1] was determined as 14.5%.
On the same count and under the same terms, then `Cc1cc(F)cc(Br)c1NC(=O)C1CCN(c2ccc(C=O)cc2)CC1`, with 15%.
For `C[C@@H](O)CNC(=O)c1cc(Cl)ccc1NS(=O)(=O)c1ccc(Oc2ccccc2Cl)cc1`, the inhibition is, setting by setting: (Thailand/16681/1984, Concentration 49.5 uM, Number of replicates 2.0, Standard deviation 1.4145601780552486 %) 30.4%; (Thailand/16681/1984, Concentration 99.01 uM, Number of replicates 2.0, Standard deviation 0.06674442365142796 %) 75.7%; (Thailand/16681/1984, Concentration 198.0 uM, Number of replicates 2.0, Standard deviation 0.019135343573522066 %) 67%.
Take `Cc1cc(CO)c2cccc(Cc3cccc(NC(=O)CNC4CC4)c3)c2n1`: the inhibition reads like this: (Thailand/16681/1984, Concentration 49.95 uM, Number of replicates 2.0, Standard deviation 1.5245757174015988 %) 0.182%; (Thailand/16681/1984, Concentration 99.9 uM, Number of replicates 2.0, Standard deviation 1.8285218036822166 %) 7.46%.
On to `Cc1cc(CO)c2cccc(Cc3ccccc3C(=O)NC[C@H](C)O)c2n1`, for which the inhibition is -3.03% (Thailand/16681/1984, Concentration 49.95 uM, Number of replicates 2.0, Standard deviation 0.37872955767016525 %) and 0.577% (Thailand/16681/1984, Concentration 99.9 uM, Number of replicates 2.0, Standard deviation 0.20409716758521712 %).
In the case of `CN(Cc1cc([N+](=O)[O-])ccc1Cl)C(=O)C1CCN(c2ccc(C=O)cc2)CC1`, the inhibition under setting [1] is 15.6%.
As to `Cc1cc(CO)c2cccc(Cc3ccccc3C(=O)N(c3ncccn3)S(=O)(=O)c3ccc(N)cc3)c2n1`, the inhibition is, setting by setting: (Thailand/16681/1984, Concentration 49.95 uM, Number of replicates 2.0, Standard deviation 1.284948840815395 %) 27.7%; (Thailand/16681/1984, Concentration 99.9 uM, Number of replicates 2.0, Standard deviation 0.4850893215235289 %) 47.5%.
As for `O=Cc1ccc(N2CCC(C(=O)Nc3ccc(I)cc3)CC2)cc1`, the inhibition under setting [1] came out at 13.9%.
On the same count and under the same terms, then `COc1cc(Cl)nc(NC(=O)C2CCN(c3ccc(C=O)cc3)CC2)n1`, with 14.3%; and `O=Cc1ccc(N2CCC(C(=O)Nc3ccc(Cl)nc3Cl)CC2)cc1`, with 10.5%.
The same measure, in the same setting: to `O=Cc1ccc(N2CCC(C(=O)NCCCCN3CCOCC3)CC2)cc1` belongs 12.1%.
Turning to `O=C1NCc2ccccc2C12CCN(CCn1cc(-c3ccccc3)cn1)CC2`, the inhibition is -0.861% (Thailand/16681/1984, Concentration 49.5 uM, Number of replicates 2.0, Standard deviation 0.9617186641961479 %); 0.332% (Thailand/16681/1984, Concentration 99.01 uM, Number of replicates 2.0, Standard deviation 1.5619571903387601 %); 2.76% (Thailand/16681/1984, Concentration 198.0 uM, Number of replicates 2.0, Standard deviation 1.242976058788851 %).
On to `O=Cc1ccc(N2CCC(C(=O)NCc3cccc([N+](=O)[O-])c3)CC2)cc1`, for which the inhibition under setting [1] came to 11%.
For `O=S(=O)(Nc1ccccc1)c1ccc(Oc2ccccc2Cl)cc1`, the inhibition runs as follows: (Thailand/16681/1984, Concentration 49.5 uM, Number of replicates 2.0, Standard deviation 1.8105423163556815 %) 1.05%; (Thailand/16681/1984, Concentration 99.01 uM, Number of replicates 2.0, Standard deviation 1.556829309720985 %) 2.93%; (Thailand/16681/1984, Concentration 198.0 uM, Number of replicates 2.0, Standard deviation 1.335088080503107 %) 5.83%.
In the case of `O=Cc1ccc(N2CCC(C(=O)Nc3ccc(-c4ccccn4)cc3)CC2)cc1`, the inhibition under setting [1] was determined as 14.2%.
As to `O=C(Nc1cc2c(cc1C1CC1)CNC2)c1cc(F)cc2[nH]ncc12`, the inhibition reads like this: (Thailand/16681/1984, Concentration 99.5 uM, Number of replicates 2.0, Standard deviation 0.34945873996674337 %) 63.1%; (Thailand/16681/1984, Concentration 295.6 uM, Number of replicates 2.0, Standard deviation 0.6526301250248825 %) 85.2%.
For the molecule `Cc1ccc(NC(=O)C2CCN(c3ccc(C=O)cc3)CC2)cc1I`, the inhibition under setting [1] turned out to be 9.87%.
For the molecule `Cn1cc(NC(=O)c2ccccc2C(F)(F)F)c(-c2ccc3oc(=O)[nH]c3c2)n1`, the inhibition (Thailand/16681/1984, Concentration 49.5 uM, Number of replicates 2.0, Standard deviation 0.10106409663166684 %) is -3.34%; the inhibition (Thailand/16681/1984, Concentration 99.01 uM, Number of replicates 2.0, Standard deviation 1.4404067329045545 %) is -2.03%; the inhibition (Thailand/16681/1984, Concentration 198.0 uM, Number of replicates 2.0, Standard deviation 0.4542972554699548 %) was -1.2%.
Regarding `c1ccc2oc(C3CCN(Cc4c[nH]c5ccccc45)CC3)nc2c1`, the inhibition runs as follows: (Thailand/16681/1984, Concentration 49.5 uM, Number of replicates 2.0, Standard deviation 1.4155991189444663 %) 1.29%; (Thailand/16681/1984, Concentration 99.01 uM, Number of replicates 2.0, Standard deviation 0.9962387138309198 %) 1.83%; (Thailand/16681/1984, Concentration 198.0 uM, Number of replicates 2.0, Standard deviation 0.9574776059546029 %) 3.59%.
As to `Cc1cnccc1NC(=O)c1cccn(CC(C)C)c1=O`, the inhibition was 5.85% (Thailand/16681/1984, Concentration 49.5 uM, Number of replicates 2.0, Standard deviation 0.778042961803475 %); 10.9% (Thailand/16681/1984, Concentration 99.01 uM, Number of replicates 2.0, Standard deviation 0.8584470104698897 %); 17.9% (Thailand/16681/1984, Concentration 198.0 uM, Number of replicates 2.0, Standard deviation 0.9860352989812204 %).
On to `O=C(c1ccc2c(c1)B(O)OC2)N1CCN[C@H](c2ccc(Cl)cc2)C1`, for which the inhibition (Thailand/16681/1984, Concentration 49.5 uM, Number of replicates 2.0, Standard deviation 1.1051975895382533 %) was -1.33%; the inhibition (Thailand/16681/1984, Concentration 99.01 uM, Number of replicates 2.0, Standard deviation 0.5109273627094355 %) was -1.22%; the inhibition (Thailand/16681/1984, Concentration 198.0 uM, Number of replicates 2.0, Standard deviation 0.04393612974415127 %) is -0.309%.
As to `Cc1cc(CO)c2cccc(Cc3ccccc3C(=O)N[C@@H](CCN)C(=O)O)c2n1`, the inhibition is -7.13% (Thailand/16681/1984, Concentration 49.95 uM, Number of replicates 2.0, Standard deviation 1.520667397992335 %) and 2.52% (Thailand/16681/1984, Concentration 99.9 uM, Number of replicates 2.0, Standard deviation 0.9349661312279641 %).
Turning to `COc1cc(CNC(=O)C2CCN(c3ccc(C=O)cc3)CC2)ccc1O`, the inhibition under setting [1] was 14.1%.
For `Cc1cc(CO)c2cccc(Cc3cccc(C(=O)N4CC[C@@H](O)C4)c3)c2n1`, the inhibition was -6.42% (Thailand/16681/1984, Concentration 49.95 uM, Number of replicates 2.0, Standard deviation 0.8940031033980441 %) and -4.22% (Thailand/16681/1984, Concentration 99.9 uM, Number of replicates 2.0, Standard deviation 1.7851314545528572 %).
